# The campaign covered roughly 420,000 compounds. About 50,000 (12%) were called active. The shares of active, inactive and inconclusive entries below differ from those in the screen. Calls follow the shape of the dose curve; as a rule, active = well fitted inhibition curve with a large enough effect; inconclusive = small, poorly fitted or top-dose-only effect; inactive = flat fitted curve, though single readings scatter. Potencies of inconclusive entries are left out as doubtful fits.
# Test: qHTS for Inhibitors of human tyrosyl-DNA phosphodiesterase 1 (TDP1): qHTS in cells in presence of CPT; also: nearly all actives have a fitted effect of over 55% in size
# Settings: chicken DT40 Tdp1-/-;hTDP1 cells + 20 nM CPT, ATP luminescence, 48 h; activity change, negative = growth inhibition: at 46.2 µM (top of the series) unless noted
# Outline: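 Cell growth measured by CellTiter-Glo luminescence after a minimum 48 h, 37 C compound exposure with 20 nM CPT in Tdp1-knockout DT40 cells stably expressing hTDP1, seeded 400/well; qHTS titration format.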
# % is scaled to controls: 0 for no effect and ±100 for the full control effect; potency is read from the fitted curve at half-maximal effect; tags tell the direction and shape of the fitted curve.
Compound,Potency,"activity change, negative = growth inhibition"
COc1ccc(C)cc1NC(=O)C(OC(=O)c1cccc(S(=O)(=O)N(C)c2ccccc2)c1)c1ccccc1 (stereo not drawn),"inconclusive [inhibitor, partial curve]",
CCc1ccc(CNC(=O)c2ccc3c(Cl)c4c(nc3c2)CCCC4)cc1,"inconclusive [inhibitor, single point]",
Cc1cc(C(F)(F)F)c(C#N)c(SCC(=O)Nc2nc3ccccc3s2)n1,"inconclusive [inhibitor, single point]",
COc1ccc([C@H]2C[C@H](O)C[C@@H](CCn3cc(-c4ccccc4)nn3)O2)cc1,"inconclusive [inhibitor, single point]",
O=C(/C=C/c1ccc([N+](=O)[O-])cc1)NCCOc1ccc(F)cc1,"inconclusive [inhibitor, single point]",
FC(F)(F)c1ccc(Oc2ccccc2Cl)nc1,inactive,
CC(OC(=O)c1cccc(S(=O)(=O)N2CCOCC2)c1)C(=O)NC1CCCCC1C (stereo not drawn),inactive,
Nn1c(=S)[nH]nc(Cc2ccc(O)cc2)c1=O,inactive,
O=C(Nc1ncccc1O)c1ccc(NS(=O)(=O)c2ccc3[nH]c(=O)[nH]c3c2)cc1,"inconclusive [inhibitor, partial curve]",
CCOC(=O)N1CCN(S(=O)(=O)c2ccc(C(=O)Nc3nc4c(s3)CC(C)CC4)cc2)CC1 (stereo not drawn),"inconclusive [inhibitor, single point]",
O=C(NCC1CCOCC1)c1cc(COc2cccc(C(F)(F)F)c2)on1,"inconclusive [inhibitor, single point]",
COc1cccc(-c2noc(C3CCCN(C(=O)c4ccc(F)cc4)C3)n2)c1 (stereo not drawn),inactive,
S=C(Nc1ccccc1Cl)NC1CCN(Cc2ccccc2)CC1,active: 20.6 µM,
C[C@@H]1CN([C@H](C)CO)C(=O)CCCn2cc(nn2)CO[C@H]1CN(C)C(=O)Nc1ccc2c(c1)OCO2,inactive,
O=C(C=P(c1ccccc1)(c1ccccc1)c1ccccc1)c1ccccc1-c1ccccc1C(=O)C=P(c1ccccc1)(c1ccccc1)c1ccccc1,active: 0.731 µM,
COc1ccc(S(=O)(=O)N(C)CC(=O)NCc2cccnc2)cc1C,inactive,
O=C(Oc1c(-c2ccccc2)oc2ccccc2c1=O)c1ccccc1,"inconclusive [inhibitor, single point]",
CN(C)c1ccc(-c2nc(NCc3cccnc3)c3ccccc3n2)cc1,active: 3.66 µM,
Cc1cccnc1C(NC(=O)C1CCN(CCOc2ccc(Cl)cc2Cl)CC1)c1ccc(Cl)cc1 (stereo not drawn),active: 11.6 µM,
CCOc1ccc2oc(C(=O)NNC(=O)c3ccccc3O)c(C)c2c1,"inconclusive [inhibitor, single point]",
CC1CCc2nn(CC(=O)NC3CCCC(C)C3C)cc2C1 (stereo not drawn),"inconclusive [inhibitor, single point]",
Cc1ccc2ccc(C(Nc3ccccc3)c3ccc(F)cc3)c(O)c2n1 (stereo not drawn),active: 9.2 µM,
C#CC(C)(CC)NC(=O)c1cc(OC)c(OC)c(OC)c1 (stereo not drawn),inactive,

Compound,Potency,"activity change, negative = growth inhibition"
O=C(NNc1nc(N2CCOCC2)nc(N2CCOCC2)n1)c1ccccc1,"inconclusive [inhibitor, partial curve]",
Cc1cc(NCCCN2CCOCC2)n2nc(C)c(-c3ccccc3)c2n1,active: 16.4 µM,
O=C(Nc1ccc(Br)cc1)Nc1cnccn1,"inconclusive [inhibitor, single point]",
COc1ccc(S(=O)(=O)N2CCCCC2)cc1NC(=O)C1COc2ccccc2O1 (stereo not drawn),active: 23.1 µM,
COc1ccc(C(=O)NCC(=O)N2CC=C(c3ccccc3)CC2)cc1OC,"inconclusive [inhibitor, single point]",
Cc1cc(N2CCN(c3cccc(C)c3C)CC2)n2cnnc2n1,"inconclusive [inhibitor, single point]",
CCN(CC)S(=O)(=O)c1ccc(C(=O)NN(C)C2=NS(=O)(=O)c3ccccc32)cc1,"inconclusive [inhibitor, full curve, poor fit]",
COCC(=O)Nc1sc2c(c1C(=O)OC)C(C(=O)OC)CC2 (stereo not drawn),"inconclusive [inhibitor, partial curve]",
O=C(CCN1C(=O)/C(=C/c2ccccc2F)SC1=S)Nc1ccccn1,inactive,
CCOC(=O)Cc1csc(/N=C/c2c(O)n(-c3ccc(C)cc3C)c(=O)c3ccccc23)n1,"inconclusive [inhibitor, single point]",
CC(NC(=O)Cn1nc(C(=O)O)c2ccccc2c1=O)c1ccccc1 (stereo not drawn),"inconclusive [inhibitor, single point]",
Cc1nnc2sc(-c3ccc(NC(=O)c4ccc(-c5ccc(Cl)cc5Cl)o4)cc3)nn12,active: 16.4 µM,
CCCN(CC1CC1)C(=O)COC(=O)c1oc2ccc(OCC)cc2c1C,inactive,
O=S(=O)(c1ccccc1)N1CCC(c2ccccc2)CC1,"inconclusive [inhibitor, partial curve, poor fit]",
O=C(CN1CCN(C(=O)c2ccccc2Cl)CC1)Nc1cccc(S(=O)(=O)N2CCCC2)c1,"inconclusive [inhibitor, single point]",
COc1ccc(C(=O)N2CCN(CCc3ccccc3)CC2)cc1[N+](=O)[O-],"inconclusive [inhibitor, single point]",
COC(=O)c1ccc([C@@H]2C[C@H]3CN(Cc4cccnc4)C(=O)[C@]34CCCN24)cc1,inactive,
O=C(c1cc(-c2ccco2)on1)N1CCOCC1,inactive,
COc1ccc(OC)c(N2C(N)=C(C#N)C(c3ccc(OC)c(O)c3)C3=C2CC(C)(C)CC3=O)c1 (stereo not drawn),inactive,
Cc1onc(-c2ccccc2)c1C(=O)NNC(=O)c1ccccc1Br,inactive,
CCCCCCNc1nc(NCc2ccco2)nc(OCC)n1,active: 20.6 µM,
COc1ccccc1C1CC(c2ccc(Cl)cc2Cl)Nc2nc(N)nn21 (stereo not drawn),"inconclusive [inhibitor, single point]",
Nc1ccn(CC(=O)NCCNc2ccc([N+](=O)[O-])cn2)c(=O)n1,"inconclusive [inhibitor, single point]",

Compound,Potency,"activity change, negative = growth inhibition"
CC(=O)N1CCN(c2ccccc2NC(=O)COc2ccc(Cl)cc2Cl)CC1,"inconclusive [inhibitor, single point]",
CC(C)[C@H](NC(=O)N1CC(=O)Nc2ccccc21)C(=O)N1CCC[C@@H]1C(=O)O,inactive,
CCc1ccc2c(c1)C(c1ccc([N+](=O)[O-])cc1)=NNC(c1ccc(Br)cc1)=N2,active: 13 µM,
C[n+]1ccc(/C=N/Nc2nc(Cl)c(C#N)c(Cl)c2Cl)cc1,"inconclusive [inhibitor, single point]",
CCOC(=O)C1CCN(C(=O)Cn2nc(C)n3nc(-c4ccc(CC)cc4)cc3c2=O)CC1,"inconclusive [inhibitor, single point]",
O=c1[nH]c(C2CCN(S(=O)(=O)c3ccccc3C(F)(F)F)CC2)nc2c1nnn2Cc1ccccc1,"inconclusive [inhibitor, single point]",
COc1ccc(S(=O)(=O)N(CC(=O)NCCSc2ccccn2)c2ccccc2)cc1,"inconclusive [inhibitor, single point]",
CN1C(=O)[C@H]2[C@@H](c3ccc(C(F)(F)F)cc3)N[C@]3(CCCN(Cc4ccc(C(F)(F)F)cc4)C3=O)[C@H]2C1=O,active: 23.1 µM,
CCCCCCCCCCCCCCNCCO,"inconclusive [inhibitor, single point]",
Cc1nn(CC(=O)NCc2ccc(F)cc2)c2ccccc12,inactive,
CCN(CC)C(=O)[C@H]1C[C@H](CC(=O)NCc2cccc(C(F)(F)F)c2)C(=O)N2CCc3c([nH]c4cc(-c5ccco5)ccc34)[C@]12C,"inconclusive [inhibitor, single point]",
CCCN(Cc1cccs1)C(=O)Nc1cc(Cl)ccc1C,"inconclusive [inhibitor, single point]",
CC(=O)N(Cc1cc2ccccc2[nH]c1=O)c1ccc(C)cc1,"inconclusive [inhibitor, single point]",
Cc1c(C(=O)NCCS(=O)(=O)N2CCN(c3ccccc3F)CC2)cccc1[N+](=O)[O-],"inconclusive [inhibitor, single point]",
O=C(Nc1nc2c(s1)CCCC2)c1cccnc1,,inconclusive: -30.7% [inhibitor]
COc1cccc(S(=O)(=O)Nc2ccc3c(c2)[C@H]2C[C@H](CC(=O)N[C@@H](C)c4ccccc4)O[C@H](CO)[C@H]2O3)c1,"inconclusive [inhibitor, single point]",
Cc1cccc(C)c1NC(=S)N1CCCCCC1,inactive,
C=CCn1c(SCc2ccccc2C#N)nnc1-c1cc(Br)ccc1O,"inconclusive [inhibitor, single point]",
Cc1ccc(C)c(N2CCN(C(=O)CCC(=O)Nc3ccc4nc(N5CCCCC5)cc(C)c4c3)CC2)c1,active: 11.6 µM,
Cc1ccc(C)c(N2CCN(Cc3nnnn3C3CCCCC3)CC2)c1,"inconclusive [inhibitor, single point]",
O=S(=O)(c1ccccc1)N1CCN=C1SCc1ccc(Cl)cc1,"inconclusive [inhibitor, single point]",
Clc1ccccc1OCCN1CCC(Cc2ccccc2)CC1,"inconclusive [inhibitor, single point]",
